Test results from paper PMC8664900.
Results are given in words; binding and its absence hold for the method and conditions named. For some of these results: Binding seen in cells or lysates may run through a third protein. Some entries that bind do so weakly or less than the wild type. Tags and fused reporters may be left off the sequences shown. Values belong to the binder of their own block, whether it stands above or below them.

How the values were obtained:
[1] = biological target: T1, ot-Vac8∆N-mTagBFP2 (Atg19^152–191-Vac8^19–578-mTagBFP2) (S. cerevisiae) (UniProt P39968); assay: recruitment of GFP-tagged prey to oligomer-tethered bait (live-cell fluorescence microscopy); bait fused to the ot peptide and clustered on cytosolic Ape1 oligomers in atg19∆ vac8∆ yeast; cells with GFP puncta counted; only the bait is clustered
T1 sequence: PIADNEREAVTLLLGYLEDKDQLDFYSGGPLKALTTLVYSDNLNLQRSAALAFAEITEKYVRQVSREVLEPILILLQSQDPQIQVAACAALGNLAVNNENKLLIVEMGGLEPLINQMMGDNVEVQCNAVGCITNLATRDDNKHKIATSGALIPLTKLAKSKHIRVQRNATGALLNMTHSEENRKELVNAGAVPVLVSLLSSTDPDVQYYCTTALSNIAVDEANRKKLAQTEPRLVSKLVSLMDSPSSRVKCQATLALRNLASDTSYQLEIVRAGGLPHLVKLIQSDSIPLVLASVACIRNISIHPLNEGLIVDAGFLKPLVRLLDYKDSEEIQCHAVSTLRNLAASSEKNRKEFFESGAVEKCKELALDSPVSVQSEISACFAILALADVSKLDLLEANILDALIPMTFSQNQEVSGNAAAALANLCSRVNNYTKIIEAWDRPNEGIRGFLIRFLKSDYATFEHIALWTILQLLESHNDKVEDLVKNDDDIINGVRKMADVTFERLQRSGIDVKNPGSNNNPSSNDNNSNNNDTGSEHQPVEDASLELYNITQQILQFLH

[2] = biological target: T2, ot-Vac8∆N-GFP (S. cerevisiae) (UniProt P39968); assay: association of oligomer-tethered bait puncta with µNS particles (live-cell fluorescence microscopy); ot-Vac8∆N-GFP on Ape1 oligomers and Atg11-BFP-µNS particles coexpressed in atg13∆ atg19∆ vac8∆ yeast; both partners clustered; BFP puncta overlapping with GFP puncta counted
T2 sequence: T1 sequence

[3] = biological target: T3, GST-Atg19^3D (S390D, S391D, and S396D) (S. cerevisiae) (UniProt P35193); assay: pull-down; GST fusion from E. coli bound to Glutathione Sepharose 4B beads, incubated 1 h at 4 °C with cleared Sf9 lysate containing 8xHis-Atg11; anti-Atg11 western blot; only the target purified
T3 sequence: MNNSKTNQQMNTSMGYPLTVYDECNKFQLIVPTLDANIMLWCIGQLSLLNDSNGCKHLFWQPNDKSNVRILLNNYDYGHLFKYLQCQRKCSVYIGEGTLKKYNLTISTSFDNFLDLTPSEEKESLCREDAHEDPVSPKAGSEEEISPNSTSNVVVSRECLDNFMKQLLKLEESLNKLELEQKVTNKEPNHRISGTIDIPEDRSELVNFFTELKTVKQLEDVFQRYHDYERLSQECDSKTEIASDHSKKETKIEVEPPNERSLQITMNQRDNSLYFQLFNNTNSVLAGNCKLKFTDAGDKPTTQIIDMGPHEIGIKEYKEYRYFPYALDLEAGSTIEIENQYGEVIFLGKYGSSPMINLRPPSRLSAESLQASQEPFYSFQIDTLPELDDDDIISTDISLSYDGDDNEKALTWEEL

GST-Vac8 (S. cerevisiae) = biological target: T4, GST-Vac8 (S. cerevisiae) (UniProt P39968); assay: as above
T4 sequence: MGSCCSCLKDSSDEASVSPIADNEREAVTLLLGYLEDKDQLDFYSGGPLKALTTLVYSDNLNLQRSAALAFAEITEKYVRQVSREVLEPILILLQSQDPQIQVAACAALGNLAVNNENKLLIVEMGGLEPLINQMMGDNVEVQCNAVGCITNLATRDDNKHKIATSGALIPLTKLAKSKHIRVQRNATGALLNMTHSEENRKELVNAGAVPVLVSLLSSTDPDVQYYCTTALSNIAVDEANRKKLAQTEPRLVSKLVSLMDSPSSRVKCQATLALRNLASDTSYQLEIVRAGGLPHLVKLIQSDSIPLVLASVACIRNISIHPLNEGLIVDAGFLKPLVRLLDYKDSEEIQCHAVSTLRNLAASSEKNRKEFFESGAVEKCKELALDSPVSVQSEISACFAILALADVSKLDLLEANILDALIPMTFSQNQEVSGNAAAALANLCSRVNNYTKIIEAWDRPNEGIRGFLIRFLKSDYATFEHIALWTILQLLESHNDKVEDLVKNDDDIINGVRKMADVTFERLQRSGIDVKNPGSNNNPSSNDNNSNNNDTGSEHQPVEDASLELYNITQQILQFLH

- binding [1]: binds
B1: Vps15-GFP (protein, UniProt P22219 1-1454)
chain: MGAQLSLVVQASPSIAIFSYIDVLEEVHYVSQLNSSRFLKTCKALDPNGEIVIKVFIKPKDQYSLRPFLQRIRAQSFKLGQLPHVLNYSKLIETNRAGYMIRQHLKNNLYDRLSLRPYLQDIELKFIAFQLLNALKDIHNLNIVHGDIKTENILVTSWNWCILTDFAAFIKPVYLPEDNPGEFLFYFDTSKRRTCYLAPERFNSKLYQDGKSNNGRLTKEMDIFSLGCVIAEIFAEGRPIFNLSQLFKYKSNSYDVNREFLMEEMNSTDLRNLVLDMIQLDPSKRLSCDELLNKYRGIFFPDYFYTFIYDYFRNLVTMTTSTPISDNTCTNSTLEDNVKLLDETTEKIYRDFSQICHCLDFPLIKDGGEIGSDPPILESYKIEIEISRFLNTNLYFPQNYHLVLQQFTKVSEKIKSVKEECALLFISYLSHSIRSIVSTATKLKNLELLAVFAQFVSDENKIDRVVPYFVCCFEDSDQDVQALSLLTLIQVLTSVRKLNQLNENIFVDYLLPRLKRLLISNRQNTNYLRIVFANCLSDLAIIINRFQEFTFAQHCNDNSMDNNTEIMESSTKYSAKLIQSVEDLTVSFLTDNDTYVKMALLQNILPLCKFFGRERTNDIILSHLITYLNDKDPALRVSLIQTISGISILLGTVTLEQYILPLLIQTITDSEELVVISVLQSLKSLFKTGLIRKKYYIDISKTTSPLLLHPNNWIRQFTLMIIIEIINKLSKAEVYCILYPIIRPFFEFDVEFNFKSMISCCKQPVSRSVYNLLCSWSVRASKSLFWKKIITNHVDSFGNNRIEFITKNYSSKNYGFNKRDTKSSSSLKGIKTSSTVYSHDNKEIPLTAEDRNWIDKFHIIGLTEKDIWKIVALRGYVIRTARVMAANPDFPYNNSNYRPLVQNSPPNLNLTNIMPRNIFFDVEFAEESTSEGQDSNLENQQIYKYDESEKDSNKLNINGSKQLSTVMDINGSLIFKNKSIATTTSNLKNVFVQLEPTSYHMHSPNHGLKDNANVKPERKVVVSNSYEGDVESIEKFLSTFKILPPLRDYKEFGPIQEIVRSPNMGNLRGKLIATLMENEPNSITSSAVSPGETPYLITGSDQGVIKIWNLKEIIVGEVYSSSLTYDCSSTVTQITMIPNFDAFAVSSKDGQIIVLKVNHYQQESEVKFLNCECIRKINLKNFGKNEYAVRMRAFVNEEKSLLVALTNLSRVIIFDIRTLERLQIIENSPRHGAVSSICIDEECCVLILGTTRGIIDIWDIRFNVLIRSWSFGDHAPITHVEVCQFYGKNSVIVVGGSSKTFLTIWNFVKGHCQYAFINSDEQPSMEHFLPIEKGLEELNFCGIRSLNALSTISVSNDKILLTDEATSSIVMFSLNELSSSKAVISPSRFSDVFIPTQVTANLTMLLRKMKRTSTHSVDDSLYHHDIINSISTCEVDETPLLVACDNSGLIGIFQ

- binding [2]: binds
B2: Atg11-mTagBFP2-µNS (protein, UniProt Q12527 1-1178)
chain: MADADEYSTAPTQQEITPLQTTATIINAISGECITTNVDFFVSLDKFKQFIARKWKIPPDQLLILLPYGNKLKPSMFKELLINRSFTLNDFYVYDRRLFSLVSKPTPTNLLTSKDSNPMNSPNSNDLTETLEYLIKNSHISQYQGSDTIMIKPMPSPLEDADVDLSRLNYHSVTSLLTTNLGWLSALEIDVHYFKSLIPDIIAHIKRIFDGLTVCSQYLKLYCFDVESLYNSNVQFLNQLVDNGMTSKWEKCFNDTLSKLTALEGDSLQKFINIESLLENEKSVKILNHSINGKLNKIKREIDENASFRDIITVNIDRLRQMFTPNESKFELEDQMAESFEVLVSEMRTRSRNVLDKEEEEFNSQEFLKSMNVMLEKDKKESVKTLFTISQALYSQIGELIDLKKSLQKHAVAILGNIAFTQMEILGIKRLLLNECNKDLELYKKYEVEFAQVEDLPLIYGLYLIEKYRRLSWFQQILSFISNFNQDLELFKQNELRTRNKWVKNFGSIATVFCEDLLSSSDFKRLNEYHSHTSPPNEDEEDENENSIANYRQDLVKVSQAIDNYMTQIKETDVSEPIIDLLSKTLFETKRFHIIYSNFKNNNNNSSNGNSISPEGSIALKSDDVVKGYKTRIKKLESLLHEFQYSDIGHWPQGVLNTHLKPFRGSATSINKKKFLGASVLLEPANISEVNIDSVSQANNHQIQELESNVDDLLHQLQLLKEENNRKSMQISEMGKKISDLEVEKTAYRETLTNLNQELARLTNEEQSHRTEIFTLNASFKKQLNDIISQDNEKIEKLTGDYDDVSKSRERLQMDLDESNKKHEQEVNLLKADIERLGKQIVTSEKSYAETNSSSMEKGEKFETIPLAEDPGRENQISAYTQTLQDRIFDIISTNIFILENIGLLLTFDNNNNIQIRRVKGLKKGTAQSNILDESTQMLDAHDNSLIKSPVFQKLKDEYELIKSVANGSEKDTQQSIFLGNITQLYDNKLYEVAVIRRFKDIETLAKKLTKENKIKRTLLERFQREKVTLRNFQIGDLALFLPTRENVNSVGSMSSSTSSLSSSFSSVDLSTPPPLDAMSIQSSPSVIHSNVINQASISGRDKNKLMRPWAAFTAFEESTRYFLKDEKGLTKGKEWFVGRIVTLEHFVADSPSNNPFRLPKGSVWFQVTAVVVSYQGV

- binding [3]: binds
- binding (GST-Vac8 (S. cerevisiae)): binds weakly
B3: 8xHis-Atg11 (protein, UniProt Q12527 1-1178)
chain: B2 chain
